Measurements as given in paper PMC4336329 (PLoS ONE, 2015).
In all, about 310,000 compounds went through this assay and about 14,000 (4.5%) showed an effect of 50% or more. The effect is printed as a negative number. The list shows a part of the results.

Target: human ether-à-go-go-related gene (hERG) potassium channel (human, UniProt Q12809)
Assay: primary screen, population patch clamp on CHO cells stably expressing hERG
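Note: peak tail current of the secondary pulse compared with the same well before compound.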

Chain of human ether-à-go-go-related gene (hERG) potassium channel (Q12809 whole entry, looked up): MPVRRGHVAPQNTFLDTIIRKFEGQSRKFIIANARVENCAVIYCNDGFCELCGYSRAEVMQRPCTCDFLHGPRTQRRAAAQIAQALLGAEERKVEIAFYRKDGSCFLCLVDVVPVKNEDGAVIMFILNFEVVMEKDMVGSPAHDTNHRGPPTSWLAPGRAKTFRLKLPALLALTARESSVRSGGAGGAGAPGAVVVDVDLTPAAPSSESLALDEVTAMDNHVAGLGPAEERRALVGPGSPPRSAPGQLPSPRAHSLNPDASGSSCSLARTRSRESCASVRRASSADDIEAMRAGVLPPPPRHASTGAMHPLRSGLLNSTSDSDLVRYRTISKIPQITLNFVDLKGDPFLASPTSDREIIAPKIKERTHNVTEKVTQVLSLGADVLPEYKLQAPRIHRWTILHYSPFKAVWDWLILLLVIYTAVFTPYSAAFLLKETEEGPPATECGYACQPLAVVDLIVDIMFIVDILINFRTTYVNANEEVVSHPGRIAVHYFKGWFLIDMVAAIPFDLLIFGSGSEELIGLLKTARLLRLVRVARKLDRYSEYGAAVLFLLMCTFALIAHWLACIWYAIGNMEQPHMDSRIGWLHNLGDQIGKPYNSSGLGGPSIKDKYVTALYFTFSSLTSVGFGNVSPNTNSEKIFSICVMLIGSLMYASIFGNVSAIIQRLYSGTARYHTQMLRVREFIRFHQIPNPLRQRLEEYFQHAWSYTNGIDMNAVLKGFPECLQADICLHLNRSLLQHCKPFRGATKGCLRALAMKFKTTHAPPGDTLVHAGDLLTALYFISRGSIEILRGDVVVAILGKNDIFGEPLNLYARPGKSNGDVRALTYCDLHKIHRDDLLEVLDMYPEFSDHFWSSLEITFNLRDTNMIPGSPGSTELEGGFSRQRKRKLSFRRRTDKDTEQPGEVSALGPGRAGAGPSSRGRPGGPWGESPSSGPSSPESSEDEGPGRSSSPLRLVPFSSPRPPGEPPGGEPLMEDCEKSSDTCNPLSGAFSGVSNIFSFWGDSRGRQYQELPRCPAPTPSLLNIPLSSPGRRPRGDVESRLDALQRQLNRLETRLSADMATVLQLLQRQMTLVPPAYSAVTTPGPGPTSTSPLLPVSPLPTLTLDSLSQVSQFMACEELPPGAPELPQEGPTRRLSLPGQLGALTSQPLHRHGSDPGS

Structure (SMILES) | hERG current change (%, negative = inhibition) at 10uM
O=Cc1c(NCc2ccccc2F)c2ccccc2[nH]c1=O | 13.8%
COc1ccc(NC(=O)/C(C#N)=C/c2ccc(Br)o2)cc1 | -2.22%
COCCCC1CCN(Cc2cn[nH]c2-c2cc(OC)c(OC)c(OC)c2)CC1 | -61.8%
O=C(NCc1ccc2c(c1)OCO2)c1cc(F)c(F)cc1Cl | 23.9%
COC(=O)C1=C(C(=O)OC)[C@@H]2N(Cc3ccccc3)c3ccccc3[C@@]23C[C@@H](C(=O)OC)N(C(=O)c2ccc(Br)cc2)C3=N1 | 15%
CC(C)Oc1ccc(C(=O)Nc2ccc(N(C)C)cc2)cc1 | -0.517%
COc1ccccc1-c1nnc(SCC(=O)NCc2cccs2)n1N | 0.441%
CCOc1cc(OCC)cc(C(=O)Nc2cccc(C(C)=O)c2)c1 | -3.93%
Cn1c(SCC(=O)OCc2ccccc2)nnc1-c1ccco1 | 0.0583%
Cc1ccc(C2NC(=O)Cc3ccccc32)cc1 (stereo not drawn) | -6.09%
CC(C(=O)Nc1cc([N+](=O)[O-])ccc1Cl)N1CCN(c2ccccc2)CC1 (stereo not drawn) | 12.3%
O=C(NCc1ccccc1Br)c1cccc2c1C(=O)c1ccc(N3CCOCC3)cc1S2(=O)=O | 10.2%
COc1ccc(CCNC(=O)CSCc2ccc(Cl)cc2)cc1OC | -25.8%
CCOC(=O)C1(CCCc2ccccc2)CCN(S(C)(=O)=O)CC1 | -8.15%
CCCCc1ccc(NC(=O)CSc2nc(=O)n(CCN(CC)CC)c3c2CCC3)cc1 | -65.8%
Cc1cc(-c2cn3ccccc3n2)c(C)n1-c1ccccc1 | -21.6%
CC(C)C(=O)N1CCN(c2ccccc2NC(=S)NC(=O)c2ccco2)CC1 | 8.51%
CCn1c(=O)cc(SCC(=O)N2CCCCC2)c2ccccc21 | -7.44%
N#Cc1c(-c2ccccc2)nc(SCc2cccc(C(F)(F)F)c2)[nH]c1=O | 20%
O=C(COC(=O)C1COc2ccccc2O1)NC(=O)NC1CCCC1 (stereo not drawn) | 14%
Cn1c(CNC(=O)Nc2ccccc2Cl)nnc1SCc1ccccc1 | -19.2%
CCc1cc(=O)oc2cc(C)cc(O)c12 | 4.75%
C(=N\n1cnnc1)/c1cccs1 | 1.37%

Structure (SMILES) | hERG current change (%, negative = inhibition) at 10uM
CN(C)CCOCCP(=O)(c1ccccc1)c1ccccc1 | -7.21%
CC1SCC(NC(=O)c2cccc(Cl)c2)CS1 (stereo not drawn) | -33.8%
O=C(CCn1nc(-c2ccccc2)ccc1=O)NCCCN1CCCCCC1 | -73%
Cc1cc(-c2n[nH]c(=S)n2/N=C/C(Cl)=C/c2ccccc2)n[nH]1 | 23.7%
Cc1cc(C)n(-c2ccc(C(F)(F)F)cc2[N+](=O)[O-])n1 | 1.78%
Cc1cc(NC(=O)CSc2nc3c(cc2C#N)CCCC3)no1 | -8.83%
COc1ccc2c(c1OC)C(=O)N1c3ccccc3SC21 (stereo not drawn) | 11.7%
CNC(=O)C(=O)NCCN1CCN(C(=O)c2ccc([N+](=O)[O-])cc2)CC1 | -39.6%
Cc1cc(C)n(-c2nnc(C)n2/N=C/c2ccco2)n1 | 9.07%
Nc1cccc(-c2cc(-c3ccccc3)nc(-c3cccc(N)c3)n2)c1 | -0.0374%
CCCCn1nc2cc(C(=O)N(CC)c3ccc(OC)cc3)ccc2c1OCC | -4.26%
Cc1cc(C)c(NC(=O)Nc2ccccc2)c(C)n1 | 23.4%
NC(=O)c1cc(-c2ccccc2)nc(N2CCCCCC2)n1 | 21.7%
COc1cccc(-c2nc(=S)c3c(o2)CCCC3)c1 | 26.1%
CNC(=O)OCCSCCS(=O)(=O)c1ccc(Cl)cc1 | -8.87%
O=C(N/N=C1\CCCc2oc(C(=O)O)cc21)c1ccccc1 | -46.3%
O=C(CN1CCc2ccccc2C1)Nc1cccc(S(=O)(=O)N2CCOCC2)c1 | -17%
Clc1ccc(CSc2nnc(-c3ccncc3)o2)c(Cl)c1 | 0.528%
Cn1nc(-c2ccccc2)c(-c2nc(-c3ccccc3Cl)no2)c1Cl | 12.6%
Nc1nonc1-n1nnc(C(=O)N/N=C/c2ccc(OCc3cccc(Cl)c3)cc2)c1CN1CCCCC1 | 11.9%
CC(C)(C)C(=O)Cn1ncc(N2CCOCC2)c(Br)c1=O | -0.203%
CCOC(=O)C1(C)NC(c2ccc(OC)cc2OC)C2C(=O)N(CC)C(=O)C21 (stereo not drawn) | 43.4%
